# The list shows a part of the results.
# B1: L-Selectin (Homo sapiens), P14151 (protein)
# chain: MIFPWKCQSTQRDLWNIFKLWGWTMLCCDFLAHHGTDCWTYHYSEKPMNWQRARRFCRDNYTDLVAIQNKAEIEYLEKTLPFSRSYYWIGIRKIGGIWTWVGTNKSLTEEAENWGDGEPNNKKNKEDCVEIYIKRNKDAGKWNDDACHKLKAALCYTASCQPWSCSGHGECVEIINNYTCNCDVGYYGPQCQFVIQCEPLEAPELGTMDCTHPLGNFSFSSQCAFSCSEGTNLTGIEETTCGPFGNWSSPEPTCQVIQCEPLSAPDLGIMNCSHPLASFSFTSACTFICSEGTELIGKKKTICESSGIWSNPSPICQKLDKSFSMIKEGDYNPLFIPVAVMVTAFSGLAFIIWLARRLKKGKKSKRSMNDPY
# How the values were obtained:
# Experiment in all cases: glycan array binding signal (z-score within array); higher = stronger binding
# Conditions in all cases: glycan notation: IUPAC condensed, linker removed
# [1] = target: Gal3S(b1-4)GlcNAc6S
# How it was run: (§1)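 The binding signal is a Z-score computed within each array. Data were drawn from 3228 arrays in the Consortium for Functional Glycomics database, restricted to those with a known protein sequence. Scores were averaged over arrays of the same protein sequence at different concentrations or buffers, and over linkers, and negative values can be taken as non-binding.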
# [2] = target: Gal3S(b1-4)[Fuc(a1-3)]Glc
# How it was run: as §1
# [3] = target: Gal3S4S(b1-4)GlcNAc
# How it was run: as §1
# [4] = target: Gal3S6S(b1-4)GlcNAc
# How it was run: as §1
# [5] = target: Gal3S6S(b1-4)GlcNAc6S
# How it was run: as §1
# [6] = target: Gal4S(b1-4)GlcNAc
# How it was run: as §1
# [7] = target: Gal4S6S(b1-4)GlcNAc
# How it was run: as §1
# [8] = target: Gal6S(b1-4)Glc
# How it was run: as §1
# [9] = target: Gal6S(b1-4)Glc6S
# How it was run: as §1
# [10] = target: Gal6S(b1-4)GlcNAc
# How it was run: as §1
# [11] = target: Gal6S(b1-4)GlcNAc6S
# How it was run: as §1
# [12] = target: GalNAc(a1-3)Gal
# How it was run: as §1
# [13] = target: GalNAc(a1-3)GalNAc
# How it was run: as §1
# [14] = target: GalNAc(b1-3)Gal
# How it was run: as §1
# [15] = target: GalNAc(b1-3)Gal(a1-4)Gal(b1-4)GlcNAc
# How it was run: as §1
# [16] = target: GalNAc(b1-3)GalNAc
# How it was run: as §1
# [17] = target: GalNAc(b1-4)GlcNAc
# How it was run: as §1
# [18] = target: Glc(a1-4)Glc
# How it was run: as §1
# [19] = target: Glc(a1-6)Glc(a1-6)Glc
# How it was run: as §1
# [20] = target: Glc(b1-4)Glc
# How it was run: as §1
# [21] = target: Glc(b1-6)Glc
# How it was run: as §1
# [22] = target: GlcA(b1-3)Gal
# How it was run: as §1
# [23] = target: GlcA(b1-3)GlcNAc
# How it was run: as §1
# [24] = target: GlcA(b1-6)Gal
# How it was run: as §1
# [25] = target: GlcNAc(a1-3)Gal(b1-4)GlcNAc
# How it was run: as §1
# [26] = target: GlcNAc(a1-6)Gal(b1-4)GlcNAc
# How it was run: as §1
# [27] = target: GlcNAc(b1-2)Gal(b1-3)GalNAc
# How it was run: as §1
# [28] = target: GlcNAc(b1-2)Man(a1-3)[GlcNAc(b1-2)Man(a1-6)]Man(b1-4)GlcNAc(b1-4)GlcNAc
# How it was run: as §1
# [29] = target: GlcNAc(b1-3)Gal
# How it was run: as §1
# [30] = target: GlcNAc(b1-3)Gal(b1-3)GalNAc
# How it was run: as §1
# [31] = target: GlcNAc(b1-3)Gal(b1-4)Glc
# How it was run: as §1
# [32] = target: GlcNAc(b1-3)Gal(b1-4)GlcNAc
# How it was run: as §1
# [33] = target: GlcNAc(b1-3)Gal(b1-4)GlcNAc(b1-3)Gal(b1-4)GlcNAc
# How it was run: as §1
# [34] = target: GlcNAc(b1-3)GalNAc
# How it was run: as §1
# [35] = target: GlcNAc(b1-3)Man
# How it was run: as §1
# [36] = target: GlcNAc(b1-3)[GlcNAc(b1-4)][GlcNAc(b1-6)]GlcNAc
# How it was run: as §1
# [37] = target: GlcNAc(b1-3)[GlcNAc(b1-6)]Gal(b1-4)GlcNAc
# How it was run: as §1
binder,measurement,setting,value
B1,glycan array binding signal (z-score),[1],0.109
same,glycan array binding signal (z-score),[2],0.346
same,glycan array binding signal (z-score),[3],0.537
same,glycan array binding signal (z-score),[4],-0.046
same,glycan array binding signal (z-score),[5],4.59
same,glycan array binding signal (z-score),[6],-0.101
same,glycan array binding signal (z-score),[7],0.095
same,glycan array binding signal (z-score),[8],-0.094
same,glycan array binding signal (z-score),[9],0.742
same,glycan array binding signal (z-score),[10],-0.078
same,glycan array binding signal (z-score),[11],0.501
same,glycan array binding signal (z-score),[12],-0.207
same,glycan array binding signal (z-score),[13],0.179
same,glycan array binding signal (z-score),[14],0.399
same,glycan array binding signal (z-score),[15],-0.345
same,glycan array binding signal (z-score),[16],-0.275
same,glycan array binding signal (z-score),[17],-0.177
same,glycan array binding signal (z-score),[18],-0.182
same,glycan array binding signal (z-score),[19],-0.18
same,glycan array binding signal (z-score),[20],0.823
same,glycan array binding signal (z-score),[21],0.406
same,glycan array binding signal (z-score),[22],0.526
same,glycan array binding signal (z-score),[23],0.069
same,glycan array binding signal (z-score),[24],0.493
same,glycan array binding signal (z-score),[25],0.002
same,glycan array binding signal (z-score),[26],-0.154
same,glycan array binding signal (z-score),[27],-0.298
same,glycan array binding signal (z-score),[28],0.06
same,glycan array binding signal (z-score),[29],0.042
same,glycan array binding signal (z-score),[30],-0.298
same,glycan array binding signal (z-score),[31],-0.122
same,glycan array binding signal (z-score),[32],-0.23
same,glycan array binding signal (z-score),[33],-0.369
same,glycan array binding signal (z-score),[34],-0.4
same,glycan array binding signal (z-score),[35],0.338
same,glycan array binding signal (z-score),[36],-0.302
same,glycan array binding signal (z-score),[37],-0.304
